# Measured values taken from PubChem BioAssay AID1345083 (National Center for Advancing Translational Sciences (NCATS), 2018).
# Where “and” joins values, the source holds several entries; their conditions need not be identical. Equal values may be shown once. Out of some 94,000 compounds screened, about 6,200 (6.6%) were called active. Inconclusive means that the source gave no clear call. Such entries were picked first, then a sample of the others. The call rests on the fitted dose curve; in most records, active means well fitted inhibition curve with a large enough effect; inconclusive means small, poorly fitted or top-dose-only effect; inactive means flat fitted curve, though single readings scatter. Potencies beside an inconclusive call are fits to weak or partial responses and may not hold up.
# Experiment: Cytotoxic Profiling in HEK 293 Cell Line of Diverse Libraries Using Quantitative High-Throughput Screening; further: nearly all actives have a fitted effect of over 60% in size
# Conditions: HEK 293 viability, ATP luminescence (CellTiter-Glo), 48-72 h; series mostly up to 115 µM
# Summary of the method: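 Viability of HEK 293 cells, plated at 250 cells/well, was judged by cellular ATP after compound treatment for 48 or 72 hr. Luminescence was imaged 10 min after CellTiter-Glo addition at room temperature.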
# Potency means the concentration at half of the fitted maximal effect; tags describe the fitted curve by direction and shape.
row,Structure (SMILES),Potency
1,CNCCN1C(=O)CC[C@H]2CN(C(=O)Cc3c(C)noc3C)CC[C@H]21,inactive
2,COc1ccc(CO[C@H]2COCCN(c3nc4ccccc4o3)C2)cc1,"inconclusive: 126 µM [inhibitor, partial curve, poor fit]"
3,COCCN(C)C[C@H]1C[C@@H](CO)CN(C(=O)Cc2ccc(C)c(C)c2)C1,inactive
4,O=C(Nc1cccc(Cl)c1)c1nc2sccn2c1-c1cccc(C(F)(F)F)c1,"inconclusive: 20 µM [inhibitor, full curve]"
5,CCC[C@@H]1CN(C(=O)c2cc(-c3cccs3)n(C)n2)C[C@H]1N(C)C,"inconclusive: 89.1 µM [inhibitor, single point]"
6,COc1ccc(CCNC(=O)c2nc3sccn3c2-c2cccc(C(F)(F)F)c2)cc1,inactive
7,COc1ccc(-c2cc(N3CCC(NC(=O)c4ccc(C)c(C)c4)CC3)n[nH]2)cc1,"inconclusive: 28.2 µM [inhibitor, full curve, poor fit]"
8,O=C1COCC2(CN(c3ccc(C(F)(F)F)cn3)C2)CN1c1ccc(F)cc1,"inconclusive: 112 µM [inhibitor, partial curve]"
9,CC(C)(C)CC(=O)N1CCC2(CC1)C(=O)N(CC(=O)Nc1ccccc1)CN2c1ccccc1,"inconclusive: 56.2 µM [inhibitor, partial curve, poor fit]"
10,O=C(NCCc1ccccc1)N1CCc2nnc(C3CC3)n2CC1,inactive
11,COc1ccc(NC(=O)Nc2ccc(C)n(CC(=O)O)c2=O)cc1,inactive
12,COc1ccc(C(=O)Nc2ccc(-c3noc([C@@H]4CCCN4Cc4ccc(C(F)(F)F)cc4)n3)cn2)cc1,"inconclusive: 25.1 µM [inhibitor, partial curve]"
13,CC(C)N1CCN(C2CCN(c3ccc4c(c3)CCC4)CC2)CC1CCO (stereo unspecified),"inconclusive: 14.1 µM [inhibitor, full curve, poor fit]"
14,CC1=C[C@@H](CN2CCN(CCO)CC2)[C@H](C(C)C)C[C@H]1Cc1nnc(-c2ccc([N+](=O)[O-])cc2)o1,"inconclusive: 50.1 µM [inhibitor, partial curve, poor fit]"
15,CC(C)c1nc2c(c(-c3ccc(Cl)cc3)n1)CN([S+](=O)([O-])c1cccc(C(F)(F)F)c1)CC2,inactive
16,O=c1c2c(CO)c(-c3ccccc3)nn2ccn1CCc1ccccc1,"inconclusive: 39.8 µM [inhibitor, partial curve, poor fit]"
17,O=C(NCC(F)F)c1cc(Br)cn2ccnc12,inactive
18,COc1ccc(-c2cc(N3CCC(NC(=O)c4ccccc4Br)C3)n[nH]2)cc1 (stereo unspecified),"inconclusive: 50.1 µM [inhibitor, partial curve, poor fit]"
19,COc1ccccc1Oc1ncccc1CNC(=O)c1ccccc1SC,"inconclusive: 39.8 µM [inhibitor, full curve, poor fit]"
20,Cc1ccc(CN2C(=O)[C@@H]3C[C@@H](O)CN3C3(CN(C(C)C)C3)C2=O)o1,inactive
21,Cc1ccc(C(=O)NC2CCN(Cc3cccc(-c4ccc(F)c(F)c4)c3)CC2)cc1,"inconclusive: 39.8 µM [inhibitor, full curve, poor fit]"
22,O=C(c1ccccc1)N1CCC(C(=O)N2CCC(N3CCOC3=O)CC2)CC1,inactive

row,Structure (SMILES),Potency
1,O=c1c2c(CO)c(-c3ccccc3)nn2ccn1Cc1ccc(Br)cc1,"inconclusive: 25.1 µM [inhibitor, partial curve]"
2,Cc1ccc(NC(=O)c2ccc3c(c2)N(C)C2CCCN2C3=O)cc1 (stereo unspecified),inactive
3,COc1ccc(NC(=O)c2ccc3c(c2)N(C)C2CCCCN2C3=O)cc1OC (stereo unspecified),"inconclusive: 50.1 µM [inhibitor, partial curve, poor fit]"
4,CC1=C[C@@H](CN2CCN(c3cnccn3)CC2)[C@H](C(C)C)C[C@H]1Cc1nnc(-c2ccc([N+](=O)[O-])cc2)o1,"inconclusive: 50.1 µM [inhibitor, partial curve, poor fit]"
5,CCOC(=O)C1=CN(CC(=O)Nc2ccc(C(C)=O)cc2)S(=O)(=O)N=C1C,"inconclusive: 28.2 µM [inhibitor, full curve]"
6,O=C(NCc1cccnc1)C1CCCCN1Cc1ccc(-c2ccsc2)cc1 (stereo unspecified),"inconclusive: 39.8 µM [inhibitor, partial curve, poor fit]"
7,COCCNC(=O)CCCN1C(=O)COc2ccc(C(=O)COc3ccc(C)cc3C)cc21,"inconclusive: 89.1 µM [inhibitor, single point]"
8,CCN(CC)c1cc(CCC(=O)NCc2ccc(Cl)cc2)ccn1,"inconclusive: 79.4 µM [inhibitor, single point]"
9,O=C1NC2(CCN(Cc3ccc(C(F)(F)F)cc3)CC2)COc2ccccc21,"inconclusive: 89.1 µM [inhibitor, single point]"
10,COCC1(O)CCOC2(CCN(C(=O)c3ccccn3)CC2)C1 (stereo unspecified),inactive
11,CCOc1ccc(NC(=O)C2(CC)CCCCC(=O)N2)cc1 (stereo unspecified),"inconclusive: 89.1 µM [inhibitor, single point]"
12,COc1ccc(N2C(=O)CSC23CCN(C(=O)CC(C)C)CC3)cc1,inactive
13,O=c1[nH]c(N2CCOCC2)nc2c1CCN(Cc1cccc(F)c1)CC2,inactive
14,Cc1cc(C(=O)N2CCC(F)(c3nc(-c4ccncc4)no3)CC2)n(C)n1,"inconclusive: 56.2 µM [inhibitor, partial curve, poor fit]"
15,O=C1NCCCCCCN(Cc2ccncc2)[C@@H]2CN(C(=O)C3(c4ccccc4)CC3)CC[C@@H]12,inactive
16,CS(=O)(=O)Nc1ccc(C2(C(=O)NCc3cc(F)cc(F)c3)CCCCC2)cc1,"inconclusive: 44.7 µM [inhibitor, partial curve]"
17,COc1ccc(-c2noc(CC3CCN(C(=O)COc4cccc(C)c4)CC3)n2)cc1,"inconclusive: 50.1 µM [inhibitor, partial curve, poor fit]"
18,CC(C)c1noc(-c2cccn3c(CNC(=O)c4nccc5ccccc45)nnc23)n1,inactive
19,O=C(c1ccccc1F)N1CCC(N2CCCNC2=O)CC1,inactive
20,COCCn1ncc(N2CCCC(CC(=O)N(C)C3CCN(C)CC3)C2)cc1=O (stereo unspecified),inactive
21,COc1ccc(C(=O)NC2CCN(c3cc(-c4ccccc4)[nH]n3)CC2)cc1,"inconclusive: 79.4 µM [inhibitor, single point]"
22,CC(C)[C@H]1CN(CCS(C)(=O)=O)C[C@@H]1NC(=O)c1ccco1,inactive

row,Structure (SMILES),Potency
1,COc1ccccc1-c1ccc(CN2CCC(NC(C)=O)C2)cc1 (stereo unspecified),"inconclusive: 89.1 µM [inhibitor, partial curve, poor fit]"
2,Cc1ccc(CN2CCc3nc(C(=O)Nc4ccc(Cl)cc4)oc3CC2)cc1,"inconclusive: 50.1 µM [inhibitor, full curve]"
3,COc1ccccc1N1CCN(C(=O)CN2C(=O)NC(c3ccc(C)cc3)C3=C2COC3=O)CC1 (stereo unspecified),"inconclusive: 50.1 µM [inhibitor, partial curve, poor fit]"
4,O=C1NC2(Cc3ccccc31)CN(C(=O)c1ccc3c(c1)OCO3)C2,inactive
5,COc1ccc(NC(=O)O[C@@H]2CC[C@]3(C)C(CC[C@@H](O)[C@H]3CC(=O)NCc3ccccc3)[C@]2(C)CO)cc1 (stereo partly specified),"inconclusive: 89.1 µM [inhibitor, single point]"
6,CO[C@@H]1COCC[C@H]1NC(=O)CCCn1nnc(-c2ccc(F)cc2)n1,inactive
7,COc1cccc(CN2C[C@@H](F)[C@@H](OCc3nc4ccccc4n3C)C2)n1,"inconclusive: 100 µM [inhibitor, partial curve]"
8,COc1ccc(C(=O)N2CCC3(C2)C(=O)N(CCc2ccccc2)c2ccccc23)cc1 (stereo unspecified),"inconclusive: 31.6 µM [inhibitor, full curve, poor fit] and active: 39.8 µM"
9,O=C(Cc1ccccc1)N1CCC(N2CC(OCC3CC3)C23CCOCC3)CC1 (stereo unspecified),inactive
10,O=C(CC1CCN(S(=O)(=O)c2ccc3c(c2)OCCO3)C1)NCc1ccccc1 (stereo unspecified),"inconclusive: 50.1 µM [inhibitor, partial curve, poor fit]"
11,O=C(CCn1ccn2nc3c(c2c1=O)CCCC3)Nc1ccc(F)cc1,inactive
12,Cc1nccn1CCCC(=O)N1CCC2(CCC(=O)N(CC3CCCO3)C2)CC1 (stereo unspecified),inactive
13,COc1ncccc1-c1cccc(COc2ccc3c(cnn3CC[S+](C)(=O)[O-])c2)c1,active: 28.2 µM
14,COc1cc(CNC(=O)c2c(C)noc2-c2ccc(OC(F)(F)F)cc2)cc(OC)c1,"inconclusive: 79.4 µM [inhibitor, partial curve, poor fit]"
15,COc1ccc(CCNC(=O)c2nc3sccn3c2-c2ccc(C)cc2)cc1,"inconclusive: 50.1 µM [inhibitor, full curve, poor fit]"
16,COC(=O)N1CCCC1C(=O)N1CCCC(c2nc3ncccc3[nH]2)C1 (stereo unspecified),inactive
17,O=C(CCc1ccccc1)N1CCCC2(C1)Nc1cccnc1NC2=NC1CCCC1 (stereo unspecified),"inconclusive: 89.1 µM [inhibitor, single point]"
18,COCCC1(N(C)C)CCN(C(=O)c2ccncc2)CC1,inactive
19,COc1ccc(-c2ccc3c(c2)C(=O)N2CC[C@H](NC(=O)CSC)C[C@H]2C(=O)N3)cc1,"inconclusive: 79.4 µM [inhibitor, partial curve]"
20,O=C(NCc1nnc2n1C(C(=O)O)CC2)c1ccccc1 (stereo unspecified),inactive
21,CCCCc1ncc(CN2CCN(C3CCCC3)C(CCO)C2)[nH]1 (stereo unspecified),"inconclusive: 20 µM [inhibitor, full curve, poor fit]"
22,CC(C)c1noc(-c2cn(C3CCCN(C(=O)c4ccsc4)C3)nn2)n1 (stereo unspecified),"inconclusive: 22.4 µM [inhibitor, full curve]"
